Results published in patent US12440493B2, “Combination therapy for treating cancer comprising substituted piperazines” (Eli Lilly and Company, priority 2020, dated 2025).
“And” between values parts separate entries of the source, which are not always exact repeats. Equal values may be shown once. This continues a long series; more values of the same kind are listed elsewhere.

Tested on: IDH1(R132H) primary human AML cells
Test: AML cell differentiation in blood (flow cytometry, % hCD33+hCD11b+ of hCD45+ cells), human AML PDx models in NSG mice
Format: in vivo
Settings: QD, PO, one animal
Description: Compounds and Formulation. For in vivo studies, each test article is prepared at an appropriate concentration with vehicle. […] Compound A is prepared fresh at the appropriate concentrations with vehicle every 7 days and stored at 4° C. between doses. […] Cytarabine is prepared fresh weekly by dilution with sterile saline from stock solution of Cytarabine (injection 20 mg/mL, (Pfizer injectables')). Azacitidine (Sigma, Lot #MKBR7212) is formulated in sterile water and is prepared fresh daily immediately before dosing. In vivo human AML PDx models. […] Two models are used in the studies: […] As needed, splenocytes from tumor-bearing mice are used to propagate and expand the models, as described. Each test article is prepared as described above at an appropriate concentration with vehicle to give animals the doses tested in this study at a dosing volume of 10 μL/gram body weight. Mice receiving Compound A (PO, QD) are treated at the indicated doses for the duration of the study. The combination agents are dosed as follows: […] Treated mice are assessed in comparison to vehicle treated and naïve (non-tumor bearing) control mice. Body weight is recorded twice per week. […] AML PDx model propagation. […] Spleens are processed and splenocytes isolated as described below. Two hundred μL per subject of the splenocyte prep is injected IV (intravenous, tail vein) into recipient NSG mice. […] Once engraftment is confirmed, the mice are monitored biweekly until ready to be put on study. […] Submandibular blood is collected. Spleen/Splenocyte Processing and Prep. After excision, a spleen is weighed, and […] is placed in a standard sterile 15 mL polypropylene conical tube containing PBS, and placed on ice. […] The spleen is placed in ice cold sterile PBS in a 15 mL collection tube. The spleen is removed from the collection tube and placed in a 100 micron 50 mL conical tube cell strainer (BD Falcon #352360). The spleen is processed by gentle rubbing of the spleen tissue against the surface of the cell strainer with the end of a 5 mL syringe plunger in a circular motion. The surface of the strainer is rinsed with 10 mL room temperature sterile DPBS (HyClone SH30028) 3 times during the process. […] The cell pellet is collected by centrifugation (300×g) and washed three times with 30 mL sterile DPBS. The cells are counted and resuspended in DPBS at the desired implant concentration. Bone Marrow Collection. […] Flow cytometry analysis of human white cells. Submandibular blood samples from in vivo studies are collected. Fluor-conjugated antibody stains are added according to the manufacturer's instructions (anti-human CD33-PE (clone WM53, BD Cat #555450), anti-human CD14-APC (clone MφpP9, BD Cat #340436), anti-human CD15-V450 (clone HI98, BD Cat #561584), anti-human CD117-BV421 (clone YB5.B8, BD Cat #562434), anti-human […]7 (clone ICRF44, BD Cat #557754), anti-human […]7 (clone HI30, BD Cat #557748), and anti-human CD3-FITC (clone SK7, BD Cat #340542)). The samples are incubated for 30 minutes at room temperature, protected from light. After the incubation, 1.5 mL 1×BD Lyse/Fix (37° C., (BD #558049)) is added to each sample and incubated for 12 minutes at room temperature. The tubes are centrifuged at 300×g for 7 minutes. BD Lyse/Fix solution is aspirated and the cell pellet washed with stain/wash buffer 3 times (1 wash step consisted of: pellet resuspended in 3 mL stain/wash buffer, centrifuged at 300×g, aspirated wash). Fixed cells are then resuspended in 300 to 400 μL stain/wash buffer. Samples are analyzed on a Becton Dickinson FACSVerse Flow cytometer (Cat #651155 Serial #Z6511550447) using standard flow cytometry principles and techniques. Samples are analyzed on the same day as they are stained and fixed. Population gating and data analysis of percent population are performed in the FACSuite software on the FACSVerse cytometer. Percent population values from the data analysis are plotted in Graphpad Prism or in JMP13. […]

C=CC(=O)N1CCN([C@@H](CC2CC2)c2ccc([C@H](C)Nc3ncc4c(n3)N(CC)C(=O)OC4)cc2)CC1 [Compound A, 7-[[(1S)-1-[4-[(1S)-2-cyclopropyl-1-(4-prop-2-enoylpiperazin-1-yl)ethyl]phenyl]ethyl]amino]-1-ethyl-4H-pyrimido[4,5-d][1,3]oxazin-2-one]
AML cell differentiation (% hCD33 + hCD11b+ (of hCD45+ cells)) (B: 1 mg/kg Compound A, treatment day 7): 24.79% and 18.62% and 18.4% and 20.43% and 22.79% | AML cell differentiation (% hCD33 + hCD11b+ (of hCD45+ cells)) (B: 1 mg/kg Compound A, treatment day 23): 57.17% and 53.16% and 47.84% and 49.9% | AML cell differentiation (% hCD33 + hCD11b+ (of hCD45+ cells)) (B: 1 mg/kg Compound A, treatment day 36): 48.72% and 38.84% and 42.4% and 42.69% | AML cell differentiation (% hCD33 + hCD11b+ (of hCD45+ cells)) (B: 1 mg/kg Compound A, treatment day 50): 46.97% and 50.22% and 37.55% and 38.56% | AML cell differentiation (% hCD33 + hCD11b+ (of hCD45+ cells)) (B: 1 mg/kg Compound A, treatment day −8 (before treatment)): 18.21% and 15.94% and 14.64% | AML cell differentiation (% hCD33 + hCD11b+ (of hCD45+ cells)) (C: 10 mg/kg Compound A, treatment day 7): 28.5% and 44.67% and 21.82% and 37.68% and 30.22% | AML cell differentiation (% hCD33 + hCD11b+ (of hCD45+ cells)) (C: 10 mg/kg Compound A, treatment day 23): 66.4% and 65.68% and 78.04% and 75.09% and 68.25% | AML cell differentiation (% hCD33 + hCD11b+ (of hCD45+ cells)) (C: 10 mg/kg Compound A, treatment day 36): 76.97% and 73.58% and 78% and 69.41% and 81.2% | AML cell differentiation (% hCD33 + hCD11b+ (of hCD45+ cells)) (C: 10 mg/kg Compound A, treatment day 50): 78.52% and 72.99% and 88.65% and 77.31% and 73.29% | AML cell differentiation (% hCD33 + hCD11b+ (of hCD45+ cells)) (C: 10 mg/kg Compound A, treatment day −8 (before treatment)): 22.89% and 20.16% and 18.9% and 18.51% and 23.52%
